Assay results as given in the supplement of paper PMC7826260.
The list shows a part of the results. Each Rep nickase domain was tested in vitro on the same pool of single strands (3 µM enzyme, 1 h, 37 °C); shown is the middle of each 90-letter strand. Values are log2 of uncut reads against the no-enzyme pool; more negative means more cut, near 0 not cut, and no call is made. Reads are scaled to the total; values above 0 arise when much of the pool is cut.

Experiments:
Experiment in all cases: uncleaved DNA left, log2 of reads against the no-enzyme library (log2 ratio); higher = less cleavage (more negative = more Rep cleavage of the k-mer); sequences stand for … in CTCGTCCG…ACCGGAGA
[1] = test system: T1, Rep nickase domain of Muscovy duck circovirus
T1 sequence (Rep 1-111, printed without the tag): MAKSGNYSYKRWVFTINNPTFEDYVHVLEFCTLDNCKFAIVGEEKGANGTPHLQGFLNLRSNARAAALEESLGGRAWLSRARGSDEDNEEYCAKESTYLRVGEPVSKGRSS
Protocol: (§1)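 A pool of 90-nt single-stranded DNAs with seven random bases just before the constant AC of the nick site (name = the seven bases) was cut by 3 µM recombinant His6-SUMO-tagged Rep nickase domain (300 nM DNA, 50 mM HEPES pH 8.0, 50 mM NaCl, 1 mM MnCl2, 1 h, 37 °C, three replicates). Uncut DNA was amplified and sequenced.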

[2] = test system: T2, Rep nickase domain of banana bunchy top virus
T2 sequence (Rep 1-94, printed without the tag): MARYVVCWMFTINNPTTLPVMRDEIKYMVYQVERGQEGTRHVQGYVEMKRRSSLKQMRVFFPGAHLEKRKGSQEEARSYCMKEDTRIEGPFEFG
Protocol: as §1

[3] = test system: T3, Rep nickase domain of cabbage leaf curl virus
T3 sequence (Rep 1-116, printed without the tag): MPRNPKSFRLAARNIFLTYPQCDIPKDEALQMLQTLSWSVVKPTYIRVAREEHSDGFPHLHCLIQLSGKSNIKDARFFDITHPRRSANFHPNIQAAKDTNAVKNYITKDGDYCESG
Protocol: as §1

[4] = test system: T4, Rep nickase domain of chickpea chlorotic dwarf virus
T4 sequence (Rep 1-124, printed without the tag): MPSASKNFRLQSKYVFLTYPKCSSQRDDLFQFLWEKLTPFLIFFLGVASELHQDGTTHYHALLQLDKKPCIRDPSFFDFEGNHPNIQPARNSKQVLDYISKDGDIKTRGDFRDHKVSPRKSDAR
Protocol: as §1

[5] = test system: T5, Rep nickase domain of faba bean necrotic yellows virus
T5 sequence (Rep 1-98, printed without the tag): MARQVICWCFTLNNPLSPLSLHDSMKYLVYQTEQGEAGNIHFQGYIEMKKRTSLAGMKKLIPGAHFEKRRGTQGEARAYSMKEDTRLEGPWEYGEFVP
Protocol: as §1

[6] = test system: T6, Rep nickase domain of maize striate mosaic virus
T6 sequence (Rep 1-117, printed without the tag): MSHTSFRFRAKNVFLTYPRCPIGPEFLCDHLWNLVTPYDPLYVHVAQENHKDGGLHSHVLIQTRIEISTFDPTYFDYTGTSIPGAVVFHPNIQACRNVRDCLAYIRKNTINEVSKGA
Protocol: as §1

[7] = test system: T7, Rep nickase domain of porcine circovirus 2
T7 sequence (Rep 2-116, printed without the tag): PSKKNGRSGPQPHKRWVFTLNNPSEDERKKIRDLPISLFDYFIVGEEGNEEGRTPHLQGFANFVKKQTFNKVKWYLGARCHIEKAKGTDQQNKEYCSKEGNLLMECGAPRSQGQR
Protocol: as §1

[8] = test system: T8, Rep nickase domain of tomato golden mosaic virus
T8 sequence (Rep 1-124, printed without the tag): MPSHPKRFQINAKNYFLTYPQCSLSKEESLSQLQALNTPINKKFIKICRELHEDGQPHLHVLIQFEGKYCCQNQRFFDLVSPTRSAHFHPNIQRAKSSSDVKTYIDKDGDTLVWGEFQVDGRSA
Protocol: as §1

[9] = test system: T9, Rep nickase domain of tomato yellow leaf curl virus
T9 sequence (Rep 1-136, printed without the tag): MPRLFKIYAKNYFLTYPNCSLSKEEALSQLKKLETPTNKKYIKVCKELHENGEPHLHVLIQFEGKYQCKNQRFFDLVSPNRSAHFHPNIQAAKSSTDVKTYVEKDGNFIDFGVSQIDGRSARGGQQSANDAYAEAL
Protocol: as §1

[10] = test system: T10, Rep nickase domain of wheat dwarf virus
T10 sequence (Rep 1-137, printed without the tag): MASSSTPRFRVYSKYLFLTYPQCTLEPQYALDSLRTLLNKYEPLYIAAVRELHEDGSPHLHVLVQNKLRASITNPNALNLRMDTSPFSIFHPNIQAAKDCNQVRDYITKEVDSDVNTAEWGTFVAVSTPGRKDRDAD
Protocol: as §1

Sequence	uncleaved DNA left (log2) [1]	uncleaved DNA left (log2) [2]	uncleaved DNA left (log2) [3]	uncleaved DNA left (log2) [4]	uncleaved DNA left (log2) [5]	uncleaved DNA left (log2) [6]	uncleaved DNA left (log2) [7]	uncleaved DNA left (log2) [8]	uncleaved DNA left (log2) [9]	uncleaved DNA left (log2) [10]
ACTGTCT	-0.0272	-0.0691	-0.232	-1.08	-0.046	-0.196	-0.329	-0.0301	-0.0768	-0.0425
ACTCCAT	0.055	-0.0201	-0.133	-0.862	0.00028	-0.601	-0.141	0.00945	-0.00415	0.039
TATCCAG	0.115	0.119	-0.562	-0.568	0.0923	-1.06	0.124	0.0238	0.0986	-0.00978
CAAGAAG	0.0248	-0.000409	-0.617	-0.333	0.26	-0.914	0.269	0.0628	0.0313	-0.0372
GCGCTTA	-0.096	-0.0555	0.0191	-0.22	-0.0121	0.18	-0.0697	-0.128	-0.00954	-0.0817
CACAGGA	0.0199	0.0348	0.225	0.454	0.0647	-0.297	0.215	0.115	-0.0352	0.0883
AGATGGA	0.149	0.0806	0.261	0.518	0.149	0.137	0.0807	0.125	0.0154	0.11
ACTCCGC	-0.109	0.0255	-0.596	-0.594	-0.0452	-1.08	0.0934	-0.108	-0.123	-0.118
ACCCACG	-0.075	0.0313	-0.653	0.631	-0.0144	-0.44	0.0451	-0.0473	-0.0392	-0.0318
GTCTGTC	0.0757	0.147	0.37	0.888	0.0673	1.39	0.163	0.129	0.0793	0.181
GTCCTTT	0.133	0.0572	0.313	0.502	0.128	1.66	0.00595	0.0736	0.0597	0.0677
GGGGTTA	-0.0194	-0.00503	0.697	1.63	-0.079	2.05	0.0848	-0.0602	-0.0381	0.0147
ACTCGGA	-0.0135	-0.054	-0.148	0.0681	-0.0449	-0.435	-0.0836	-0.0282	-0.095	-0.0898
CTCTTGA	-0.0873	-0.0278	-0.331	-0.41	0.0509	-0.987	-0.0351	-0.0643	0.0193	-0.0284
CCCACCG	-0.1	-0.0153	-0.63	-0.225	-0.0229	-0.775	0.0407	-0.0156	-0.0119	0.0276
GATCTTT	-0.0105	0.00254	0.0894	-1.26	-0.00611	1.04	-1.16	-0.0784	-0.0211	0.0841
AGAAGAC	0.0804	0.179	0.119	0.643	0.113	0.675	0.216	0.116	0.0263	0.0145
TATCTTT	-0.656	-0.259	-1.56	-2.75	0.082	-0.523	-2.98	-0.0977	0.059	-0.276
TGGAAAC	0.00552	0.109	0.515	1.13	-0.0604	1.51	0.226	0.101	0.12	0.245
ACCTGAC	-0.0875	-0.242	-0.172	0.246	-0.176	-0.28	-0.0858	-0.0509	-0.117	-0.148
ATAATAC	-0.711	-0.00811	0.0792	-1.59	-0.0135	-0.992	-1.03	0.017	-0.178	-0.0305
TGTAATA	0.056	0.112	0.13	-0.359	0.011	0.509	0.00934	0.121	0.127	0.131
CTTTAAT	-3.04	-0.453	-0.0472	-1.46	-0.0375	-0.583	-3.68	-0.0258	0.00715	0.000495
AATGGCT	0.0231	0.105	0.111	0.588	0.0942	0.502	0.13	0.102	-0.0575	-0.0213
TTCCAGA	0.184	0.112	0.687	0.683	0.12	1.17	0.268	0.0578	-0.00568	0.242
ATCATCA	0.0284	0.0798	-0.0184	-0.942	-0.00243	-0.646	-0.0735	-0.03	0.107	0.192
TAGAAAG	0.114	0.168	-0.721	-0.607	0.109	-1.04	0.13	0.106	0.0954	0.0503
CGATTTA	-0.126	0.00538	-0.101	-0.957	-0.149	-0.441	-0.379	-0.11	-0.0725	-0.00428
ATTGGGA	-0.0617	0.0883	-0.306	-0.287	0.129	-0.797	0.0372	0.0986	0.0797	-0.00347
CGGGTAA	-0.0132	0.0227	0.473	0.829	-0.0597	1.36	0.0993	-0.0396	-0.0411	-0.023
